No constants are given. Whether binding was seen depends on the method and setting. In cells and extracts the contact can be indirect. Some binding calls cover weakened binding; strength is not graded here. For some assays here: Tags and fused reporters may be left off the sequences shown.
Legend:
[1] = molecular target: T1, PDZK1, endogenous in MDA-MB-231 cells (human (endogenous in MDA-MB-231)) (UniProt Q5T2W1); assay: co-IP; endogenous proteins of MDA-MB-231 cells; anti-EGFR antibody (Fig. 1F) or anti-PDZK1 antibody (Fig. 1G) coupled to affinity gel; IgG as control
T1 sequence: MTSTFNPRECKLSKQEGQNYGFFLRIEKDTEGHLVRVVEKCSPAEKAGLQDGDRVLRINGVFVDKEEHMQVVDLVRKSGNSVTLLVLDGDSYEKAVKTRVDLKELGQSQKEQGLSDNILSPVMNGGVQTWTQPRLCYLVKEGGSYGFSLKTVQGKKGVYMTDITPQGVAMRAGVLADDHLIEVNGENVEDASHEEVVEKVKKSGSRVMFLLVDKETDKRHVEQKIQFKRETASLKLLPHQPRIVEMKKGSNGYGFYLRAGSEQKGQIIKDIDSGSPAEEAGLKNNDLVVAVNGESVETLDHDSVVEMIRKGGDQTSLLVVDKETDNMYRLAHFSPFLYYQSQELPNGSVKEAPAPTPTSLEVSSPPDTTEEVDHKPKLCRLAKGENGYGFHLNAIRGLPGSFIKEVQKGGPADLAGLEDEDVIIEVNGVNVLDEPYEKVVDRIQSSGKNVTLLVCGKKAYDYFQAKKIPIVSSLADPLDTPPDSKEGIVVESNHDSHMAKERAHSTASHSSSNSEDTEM

[2] = molecular target: T2, GST-PDZK1 fusion protein (full length PDZK1) (UniProt Q5T2W1); assay: pull-down; purified GST or GST fusion proteins on beads incubated with 1 mL HEK293 cell lysate, 4 °C, 3 h; washes in 10 mM HEPES, 50 mM NaCl, 5 mM EDTA, 0.1% Tween 20; western blot; only the target purified
T2 sequence: T1 sequence

Row | Substance | binding [1] | binding [2]
1 | EGFR, endogenous in MDA-MB-231 cells (from UniProt P00533 25-1210) (receptor) | binds | –
2 | Epidermal growth factor receptor (EGFR), in lysates of HEK293 cells (from UniProt P00533 25-1210) | – | binds

— publication PMC11009252
